Source: PubChem BioAssay AID1159614 (National Center for Advancing Translational Sciences (NCATS), 2016)
Out of some 45,000 compounds screened, about 65 (0.1%) were called active. Calls follow the shape of the dose curve; as a rule, active = well fitted activation curve with a large enough effect; inconclusive = small, poorly fitted or top-dose-only effect; inactive = no such curve, though single readings can be large or run the other way. Some of the results follow.

What follows are compounds tested against Galactocerebrosidase (Homo sapiens) (UniProt P54803) (assay: A Novel Cell-Based Assay to Identify Small Molecules for B -Galactocerebrosidase). Details: 145M-Twi-hGALC-G270D cells (Twitcher mouse brain line with human GALC G270D), HMU-beta-Gal fluorescence, 48 h; series mostly up to 57.5 µM; activation: at the top concentration.
UniProt P54803, sequence (P54803 whole entry, looked up): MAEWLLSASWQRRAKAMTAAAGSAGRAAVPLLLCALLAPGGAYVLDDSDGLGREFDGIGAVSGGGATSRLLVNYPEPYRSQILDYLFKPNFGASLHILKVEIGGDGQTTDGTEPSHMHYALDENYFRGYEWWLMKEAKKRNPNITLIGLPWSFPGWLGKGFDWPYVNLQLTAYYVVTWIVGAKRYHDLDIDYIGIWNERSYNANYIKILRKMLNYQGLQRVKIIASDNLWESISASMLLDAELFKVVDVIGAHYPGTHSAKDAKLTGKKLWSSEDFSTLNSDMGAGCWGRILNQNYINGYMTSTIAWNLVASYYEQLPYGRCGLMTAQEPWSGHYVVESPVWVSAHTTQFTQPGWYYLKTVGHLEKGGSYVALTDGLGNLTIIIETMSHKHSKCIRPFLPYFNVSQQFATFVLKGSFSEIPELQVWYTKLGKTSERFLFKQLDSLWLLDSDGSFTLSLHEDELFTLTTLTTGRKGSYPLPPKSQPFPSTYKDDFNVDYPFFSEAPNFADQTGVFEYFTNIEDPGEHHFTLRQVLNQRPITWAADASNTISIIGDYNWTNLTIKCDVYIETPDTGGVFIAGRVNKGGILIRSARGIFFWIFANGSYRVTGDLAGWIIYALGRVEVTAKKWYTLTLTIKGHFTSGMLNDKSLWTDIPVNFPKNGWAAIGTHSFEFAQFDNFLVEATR
Summary of the method: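 Live 145M-Twi cells (Twitcher mouse brain-derived, GALC-null) stably expressing human GALC-G270D, with a wild-type GALC line, were compound-treated. Residual GALC activity was then read as fluorescence from 0.1 mM final HMU-β-gal at pH 5.2; higher signal means activation.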
Also: 0% is about no effect; nearly all actives have a fitted effect of over 65% in size.

activation, inactive:
CCOC(=O)C1CCN(C(=O)Cn2ncc3c4ccccc4n(C)c3c2=O)CC1 -11.6%, COc1ccc(CNC(=O)CCCN2C(=O)c3cccnc3Oc3ccc(Cl)cc32)cc1 -14.4%, Cc1oc(-c2cccc(Cl)c2)nc1CSCC(=O)NCc1ccccc1Cl -17.7%, CCn1c(=O)c2sccc2n2c(CCC(=O)NCc3ccc(Cl)cc3)nnc12 -7.77%, CCS(=O)(=O)c1ccccc1C(=O)N1CCN(c2nc3ccccc3s2)CC1 -19%, N#Cc1ccc(CSc2nnc(-c3ccc(Br)cc3)o2)cc1 -16.5%, COCCNC(=O)c1ccc(-c2nc(CN3CCc4ccccc43)c(C)o2)cc1 -9.25%, CCOC(=O)c1ccc(NC(=O)CN2CCCCC2)cc1 -8.12%, Cc1ccc(OCC(=O)Nc2sc3c(c2C(N)=O)CCCC3)c(C(C)(C)C)c1 0.69%, CC(C)OCCCNC(=O)CN1C(=O)COc2ccc(S(=O)(=O)N3CCOCC3)cc21 6.85%, COc1ccccc1NC(=O)c1ncoc1-c1ccco1 -9.68%, Cc1csc2nc(COC(=O)c3ccc(NC(=O)C(C)C)cc3)cc(=O)n12 -22.3%, CCCCNC(=O)Cn1cnc2sc(C)c(S(=O)(=O)N3CCN(c4ccccc4OC)CC3)c2c1=O -23.1%, Cc1cccc(NC(=O)c2cc3c(=O)n4ccccc4nc3n2C)c1C -7.38%, Cc1ccc(-n2c(SCC(=O)Nc3ccc4c(c3)OCCO4)nc3c([nH]c4ccccc43)c2=O)cc1 -28.7%, Cc1cccc(NS(=O)(=O)c2nnc(NC(=O)c3cccc(C)c3)s2)c1 -20.8%, COC(=O)c1ccccc1NC(=O)CSc1nc2nc(C)cc(C)n2n1 -0.292%, Cc1ccc(C(=O)Nc2ccc(Br)cc2)cc1S(=O)(=O)NCc1ccccc1 1.89%, CCOc1ccccc1C(=O)N(Cc1ccco1)Cc1ccccc1F -11.7%, CCOc1ccc2nc(NC(=O)c3ccccc3)sc2c1 -14%, O=C(Cn1ncc2c3ccccc3n(Cc3ccccc3F)c2c1=O)NCCCc1ccccc1 -8.97%, CCOc1ccc(NC(=O)C(=O)NCCc2ccccc2)cc1 -13.9%, CCc1ccc(S(=O)(=O)Nc2cc3c(cc2N2CCOCC2)n(C)c(=O)c(=O)n3C)cc1 13.2%, COc1ccc(-c2nc3ccccc3s2)cc1NC(=O)COc1cccc(C)c1 -18.1%, O=c1c(N2CCCCC2)csc2ccc(F)cc12 -13.7%, CCc1nc2ccc(C(=O)NCc3cccc(Br)c3)cc2nc1CC -17.5%, O=C(c1cnc(N2CCCCC2)c2ccccc12)N1CCN(c2cccc(Cl)c2)CC1 5.19%, COCCCNC(=O)c1nn(-c2ccc(C)cc2)c(=O)n(C)c1=O -16.1%, Cc1cc(C)cc(NC(=O)CCCn2c(=O)c3cccn3c3ccccc32)c1 -10.3%, O=C(Cn1c(=O)n(CCCS(=O)(=O)C2CCCCC2)c(=O)c2ccccc21)Nc1ccc(F)c(Cl)c1 -12.4%, COc1ccc(C)cc1NC(=O)N1CCN(c2nnc(C)c3c(C)n(-c4ccccc4)nc23)CC1 -10.2%, Cc1ccc(CN2C(=O)c3ccccc3Sc3ccc(C(=O)NC4CCCC4)cc32)cc1 -10.7%, O=C(Cn1c(SCc2ccccc2F)nc2cccnc21)Nc1ccc(F)c(Cl)c1 -5.95%, CCNC(=O)c1c2c(nc3ccccc13)C(=O)N(C1CCCCC1)C2 -16.4%, COc1ccc(Cl)cc1C1CC(=O)Nc2cc3c(cc21)OCCO3 (stereo not given) -25.7%, CCCCNc1sc(S(=O)(=O)CCC)nc1S(=O)(=O)c1ccc(C)cc1 -12.3%, CCOc1ccccc1NC(=O)CCc1c(C)nc2c3cccnc3nn2c1C -18.2%, CCc1cccc(NC(=O)Cn2ncc3c([nH]c4ccc(C)cc43)c2=O)c1 -9.71%, O=C(Nc1ccc(F)cc1)Nc1ccc2snnc2c1 -24.9%, CCc1cccc(NC(=O)CN(c2ccc(C)cc2)S(=O)(=O)c2cccs2)c1 -11.2%, O=C(NC1CC(=O)N(c2ccccc2)C1)c1ccco1 (stereo not given) -16.5%, Cc1ccc(C(=O)N2CCc3cc(CNC(=O)CCc4ccccc4)ccc32)cc1 -22.4%, COc1cccc(C(=O)NCCc2csc(-c3cccc(F)c3)n2)c1OC -11.1%, CC(CNC(=O)C1CCN(S(=O)(=O)c2ccc3c(ccn3C)c2)CC1)c1ccccc1 (stereo not given) -2.7%, CC(C)OC(=O)c1c(NC(=O)COc2cccc(Br)c2)sc2c1CCCC2 -15.9%, O=C(CSc1nc2c([nH]c3ccccc32)c(=O)n1-c1ccccc1)N1CCOCC1 -6.97%, COc1ccc(-c2onc(C)c2C)cc1S(=O)(=O)N1CCN(c2ccc(Cl)cc2)CC1 -8.84%, Nc1nonc1C(=O)NCCNCc1cccc(Cl)c1Cl -8.54%, COc1ccc(NC(=O)Cn2c(=O)n(Cc3ccccc3Cl)c(=O)c3cc(OC)c(OC)cc32)cc1OC -3.81%, CCCCN(CC)CCCNC(=O)C1CCCN(c2ncnc3c2nc2n3CCCCC2)C1 (stereo not given) -20.3%
